A lower IC50 marks a more sensitive line; where the fit passes the top or lowest dose, that dose stands as a limit. AUC is the area under the same curve over the 256-fold range up to the top dose, as a fraction; it is 1 without any effect and falls as sensitivity rises. Where the top dose is marked as inferred, it was derived from the fitted curves, not read from the paper.
Experiments:
PD-173074 = compound: CCN(CC)CCCCNc1ncc2cc(-c3cc(OC)cc(OC)c3)c(NC(=O)NC(C)(C)C)nc2n1 [PD-173074]; test: Viability of human cancer cell lines after 72 h of drug (GDSC screen); settings: top dose 2 µM; top dose inferred
Experimental: (§1)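 Human cancer cell lines in 384-well plates, medium with 10% serum, drug for 72 h over a 256-fold dose range (nine 2-fold or five 4-fold steps up to the top dose). Adherent lines were fixed and stained with the nucleic acid dye Syto60, suspension lines read with resazurin; signal relative to control wells, capped at 0 and 100%. One two-parameter sigmoid per drug and line, fitted in a mixed model over all curves with the slope shared within a line.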

SB590885 = compound: CN(C)CCOc1ccc(-c2nc(-c3ccncc3)c(-c3ccc4c(c3)CC/C4=N\O)[nH]2)cc1 [SB590885]; test: as above; settings: top dose 5 µM; top dose inferred
Experimental: as §1

| Cell Line | AUC (PD-173074) | IC50 (PD-173074) [nM] | AUC (SB590885) | IC50 (SB590885) [nM] |
| --- | --- | --- | --- | --- |
| 22RV1 (prostate, adherent) | 0.978 | > 2000 | 0.96 | > 5000 |
| 42-MG-BA (glioma, adherent) | 0.94 | > 2000 | 0.967 | > 5000 |
| 201T (lung adenocarcinoma, adherent) | 0.975 | > 2000 | 0.98 | > 5000 |
| 451Lu (melanoma, adherent) | 0.948 | > 2000 | 0.32 | 101 |
| 639-V (bladder, adherent) | 0.916 | > 2000 | 0.992 | > 5000 |
| 647-V (bladder, adherent) | 0.98 | > 2000 | 0.987 | > 5000 |
| 786-0 (kidney, adherent) | 0.981 | > 2000 | 0.971 | > 5000 |
| 5637 (bladder, adherent) | 0.989 | > 2000 | 0.978 | > 5000 |
| 8305C (thyroid, adherent) | 0.965 | > 2000 | 0.866 | > 5000 |
| 8505C (thyroid, adherent) | 0.984 | > 2000 | 0.979 | > 5000 |
| 23132-87 (stomach, adherent) | 0.986 | > 2000 | 0.986 | > 5000 |
| A172 (glioma, adherent) | 0.806 | 975 |  |  |
| A375 (melanoma, adherent) | 0.981 | > 2000 |  |  |
| A427 (non-small cell lung carcinoma, adherent) | 0.896 | > 2000 | 0.862 | 4370 |
| A431 (skin, adherent) | 0.988 | > 2000 | 0.936 | > 5000 |
| A549 (lung adenocarcinoma, adherent) | 0.98 | > 2000 |  |  |
| A673 (rhabdomyosarcoma, adherent) | 0.99 | > 2000 | 0.989 | > 5000 |
| A704 (kidney, adherent) | 0.905 | > 2000 | 0.989 | > 5000 |
| A2780 (ovary, semi-adherent) | 0.939 | > 2000 | 0.984 | > 5000 |
| AGS (stomach, adherent) | 0.974 | > 2000 | 0.932 | > 5000 |
| ASH-3 (thyroid, adherent) | 0.988 | > 2000 | 0.987 | > 5000 |
| AU565 (breast, adherent) | 0.984 | > 2000 | 0.966 | > 5000 |
| AsPC-1 (pancreas, adherent) | 0.966 | > 2000 | 0.806 | > 5000 |
| BALL-1 (B-cell leukaemia, suspension) | 0.997 | > 2000 | 0.997 | > 5000 |
| BCPAP (thyroid, adherent) | 0.986 | > 2000 | 0.977 | > 5000 |

| Cell Line | AUC (PD-173074) | IC50 (PD-173074) [nM] | AUC (SB590885) | IC50 (SB590885) [nM] |
| --- | --- | --- | --- | --- |
| BFTC-905 (bladder, adherent) | 0.99 | > 2000 | 0.929 | > 5000 |
| BHT-101 (thyroid, adherent) | 0.935 | > 2000 | 0.736 | 1510 |
| BHY (head and neck, adherent) | 0.986 | > 2000 | 0.984 | > 5000 |
| BICR10 (head and neck, adherent) | 0.886 | > 2000 | 0.985 | > 5000 |
| BICR22 (head and neck, adherent) | 0.982 | > 2000 | 0.974 | > 5000 |
| BICR78 (head and neck, adherent) | 0.96 | > 2000 | 0.983 | > 5000 |
| BPH-1 (prostate, adherent) | 0.974 | > 2000 | 0.982 | > 5000 |
| BT-20 (breast, adherent) | 0.984 | > 2000 | 0.984 | > 5000 |
| BT-483 (breast, adherent) | 0.97 | > 2000 | 0.978 | > 5000 |
| BT-549 (breast, adherent) | 0.978 | > 2000 | 0.979 | > 5000 |
| BxPC-3 (pancreas, adherent) | 0.983 | > 2000 | 0.984 | > 5000 |
| C3A (liver, adherent) | 0.986 | > 2000 | 0.988 | > 5000 |
| C32 (melanoma, adherent) | 0.987 | > 2000 | 0.401 | 164 |
| C-4-I (cervix, adherent) | 0.986 | > 2000 | 0.986 | > 5000 |
| C-33-A (cervix, adherent) | 0.986 | > 2000 | 0.986 | > 5000 |
| CADO-ES1 (Ewing sarcoma, suspension) | 0.961 | > 2000 | 0.969 | > 5000 |
| CAL-12T (non-small cell lung carcinoma, adherent) | 0.971 | > 2000 | 0.96 | > 5000 |
| CAL-27 (head and neck, adherent) | 0.981 | > 2000 | 0.976 | > 5000 |
| CAL-29 (bladder, adherent) | 0.982 | > 2000 | 0.984 | > 5000 |
| CAL-33 (head and neck, adherent) | 0.919 | > 2000 | 0.975 | > 5000 |
| CAL-39 (cervix, adherent) | 0.976 | > 2000 | 0.986 | > 5000 |
| CAL-51 (breast, adherent) | 0.987 | > 2000 | 0.991 | > 5000 |
| CAL-54 (kidney, adherent) | 0.973 | > 2000 | 0.984 | > 5000 |
| CAL-62 (thyroid, adherent) | 0.988 | > 2000 | 0.988 | > 5000 |
| CAL-72 (osteosarcoma, adherent) | 0.818 | 1390 | 0.973 | > 5000 |

| Cell Line | AUC (PD-173074) | IC50 (PD-173074) [nM] | AUC (SB590885) | IC50 (SB590885) [nM] |
| --- | --- | --- | --- | --- |
| CAL-78 (chondrosarcoma, adherent) | 0.823 | 1410 | 0.986 | > 5000 |
| CAL-85-1 (breast, adherent) | 0.98 | > 2000 | 0.965 | > 5000 |
| CAL-120 (breast, adherent) | 0.91 | > 2000 | 0.934 | > 5000 |
| CAPAN-1 (pancreas, adherent) | 0.987 | > 2000 | 0.987 | > 5000 |
| CCF-STTG1 (glioma, adherent) | 0.985 | > 2000 | 0.988 | > 5000 |
| CCK-81 (large intestine, adherent) | 0.976 | > 2000 | 0.917 | > 5000 |
| CFPAC-1 (pancreas, adherent) |  |  | 0.957 | > 5000 |
| CHL-1 (melanoma, adherent) | 0.879 | 1840 | 0.97 | > 5000 |
| CHP-134 (neuroblastoma, suspension) | 0.877 | > 2000 | 0.921 | > 5000 |
| CHP-212 (neuroblastoma, adherent) | 0.964 | > 2000 | 0.986 | > 5000 |
| CHSA0011 (chondrosarcoma, adherent) | 0.859 | > 2000 | 0.98 | > 5000 |
| CHSA0108 (chondrosarcoma, adherent) | 0.877 | > 2000 | 0.973 | > 5000 |
| CHSA8926 (chondrosarcoma, adherent) | 0.968 | > 2000 | 0.961 | > 5000 |
| CL-34 (large intestine, adherent) | 0.987 | > 2000 | 0.901 | > 5000 |
| CL-40 (large intestine, adherent) | 0.968 | > 2000 | 0.97 | > 5000 |
| CML-T1 (chronic myeloid leukaemia, suspension) | 0.952 | > 2000 | 0.95 | > 5000 |
| COLO-205 (large intestine, suspension) | 0.914 | > 2000 |  |  |
| COLO-678 (large intestine, semi-adherent) | 0.979 | > 2000 | 0.985 | > 5000 |
| COLO-679 (melanoma, adherent) | 0.978 | > 2000 | 0.484 | 282 |
| COLO-680N (oesophagus, adherent) | 0.986 | > 2000 | 0.983 | > 5000 |
| COLO-783 (melanoma, adherent) | 0.991 | > 2000 | 0.801 | 2330 |
| COR-L23 (large cell lung carcinoma, adherent) | 0.987 | > 2000 | 0.962 | > 5000 |
| COR-L321 (lung, suspension) | 0.96 | > 2000 | 0.979 | > 5000 |
| CP50-MEL-B (melanoma, adherent) | 0.979 | > 2000 | 0.695 | 1100 |
| CRO-AP2 (B-cell lymphoma, suspension) | 0.907 | > 2000 | 0.978 | > 5000 |

| Cell Line | AUC (PD-173074) | IC50 (PD-173074) [nM] | AUC (SB590885) | IC50 (SB590885) [nM] |
| --- | --- | --- | --- | --- |
| CS1 (bone, adherent) | 0.984 | > 2000 | 0.919 | > 5000 |
| Ca9-22 (head and neck, adherent) | 0.964 | > 2000 | 0.98 | > 5000 |
| Ca-Ski (cervix, adherent) | 0.973 | > 2000 |  |  |
| CaR-1 (large intestine, adherent) | 0.978 | > 2000 | 0.956 | > 5000 |
| EMC-BAC-2 (lung adenocarcinoma, adherent) | 0.967 | > 2000 |  |  |
| FU97 (stomach, adherent) |  |  | 0.974 | > 5000 |
| HCC-827 (lung adenocarcinoma, adherent) |  |  | 0.969 | > 5000 |
| HCT-116 (large intestine, adherent) | 0.977 | > 2000 |  |  |
| HT-29 (large intestine, adherent) | 0.988 | > 2000 |  |  |
| HT-1080 (fibrosarcoma, adherent) | 0.989 | > 2000 |  |  |
| IGR-37 (melanoma, adherent) | 0.979 | > 2000 |  |  |
| KYM-1 (rhabdomyosarcoma, adherent) | 0.948 | > 2000 |  |  |
| MFE-319 (endometrium, adherent) | 0.983 | > 2000 |  |  |
| MKN1 (stomach, adherent) | 0.979 | > 2000 |  |  |
| NCI-H358 (lung adenocarcinoma, adherent) | 0.965 | > 2000 |  |  |
| NCI-H520 (lung squamous cell carcinoma, adherent) |  |  | 0.987 | > 5000 |
| NCI-H2110 (non-small cell lung carcinoma, adherent) |  |  | 0.89 | > 5000 |
| RERF-GC-1B (stomach, adherent) | 0.856 | 1920 |  |  |
| SK-MEL-28 (melanoma, adherent) | 0.954 | > 2000 |  |  |
| SK-MEL-30 (melanoma, adherent) | 0.951 | > 2000 |  |  |
| SNG-M (endometrium, adherent) | 0.983 | > 2000 |  |  |
| SU8686 (pancreas, adherent) | 0.883 | > 2000 |  |  |
| SW13 (adrenal gland, adherent) | 0.987 | > 2000 |  |  |
| TE-4 (oesophagus, adherent) |  |  | 0.981 | > 5000 |
| UACC-893 (breast, adherent) | 0.968 | > 2000 |  |  |

From the supplement of paper PMC4967469
